Laboratory results reported in paper PMC3407085.
Results are given in words; binding and its absence hold for the method and conditions named. In cells and extracts the contact can be indirect. Some entries that bind do so weakly or less than the wild type.

Sequences of proteins named here, by UniProt entry; tags and fusion partners are left off.
UniProt P27540: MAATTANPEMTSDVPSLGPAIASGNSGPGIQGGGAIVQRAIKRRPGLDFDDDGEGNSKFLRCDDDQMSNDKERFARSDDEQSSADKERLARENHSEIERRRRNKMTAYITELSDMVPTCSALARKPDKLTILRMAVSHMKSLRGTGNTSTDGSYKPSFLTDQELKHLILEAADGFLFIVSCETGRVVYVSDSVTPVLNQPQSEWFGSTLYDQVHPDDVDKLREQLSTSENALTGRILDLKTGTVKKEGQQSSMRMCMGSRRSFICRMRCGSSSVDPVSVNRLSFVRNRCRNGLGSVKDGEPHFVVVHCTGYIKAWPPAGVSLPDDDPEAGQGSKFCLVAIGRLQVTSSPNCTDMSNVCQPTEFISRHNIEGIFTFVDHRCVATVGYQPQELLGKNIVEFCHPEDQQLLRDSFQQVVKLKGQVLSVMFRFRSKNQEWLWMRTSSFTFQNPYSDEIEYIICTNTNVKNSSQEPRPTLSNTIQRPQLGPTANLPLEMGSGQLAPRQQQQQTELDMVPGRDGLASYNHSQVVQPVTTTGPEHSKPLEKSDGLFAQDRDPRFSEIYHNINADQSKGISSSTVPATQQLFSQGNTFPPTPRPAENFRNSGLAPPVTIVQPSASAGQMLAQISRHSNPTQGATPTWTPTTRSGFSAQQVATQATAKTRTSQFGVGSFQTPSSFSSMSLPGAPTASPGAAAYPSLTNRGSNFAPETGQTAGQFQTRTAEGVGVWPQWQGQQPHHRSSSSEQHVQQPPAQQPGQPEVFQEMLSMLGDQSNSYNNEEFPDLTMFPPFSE

Tests used:
GST-HIF1A = GST-HIF1A (UniProt Q16665); experiment: pull-down; GST fusion proteins immobilised on beads; proteins captured from whole lymphoblastoid cell lysates; Western blotting; only the target purified
GST-ARNT = GST-ARNT (UniProt P27540); experiment: as above

Binder	binding (GST-HIF1A)	binding (GST-ARNT)
EBNA-3 (endogenous in lymphoblastoid cells) (protein, UniProt P12977 1-944) MDKDRPGPPALDDNMEEEVPSTSVVQEQVSAGDWENVLIELSDSSSEKEAEDAHLEPAQKGTKRKRVDHDAGGSAPARPMLPPQPDLPGREAILRRFPLDLRTLLQAIGAAATRIDTRAIDQFFGSQISNTEMYIMYAMAIRQAIRDRRRNPASRRDQAKWRLQTLAAGWPMGYQAYSSWMYSYTDHQTTPTFVHLQATLGCTGGRRCHVTFSAGTFKLPRCTPGDRQWLYVQSSVGNIVQSCNPRYSIFFDYMAIHRSLTKIWEEVLTPDQRVSFMEFLGFLQRTDLSYIKSFVSDALGTTSIQTPWIDDNPSTETAQAWNAGFLRGRAYGIDLLRTEGEHVEGATGETREESEDTESDGDDEDLPCIVSRGGPKVKRPPIFIRRLHRLLLMRAGKRTEQGKEVLEKARGSTYGTPRPPVPKPRPEVPQSDETATSHGSAQVPEPPTIHLAAQGMAYPLHEQHGMAPCPVAQAPPTPLPPVSPGDQLPGVFSDGRVACAPVPAPAGPIVRPWEPSLTQAAGQAFAPVRPQHMPVEPVPVPTVALERPVYPKPVRPAPPKIAMQGPGETSGIRRARERWRPAPWTPNPPRSPSQMSVRDRLARLRAEAQVKQASVEVQPPQLTQVSPQQPMEGPLVPEQQMFPGAPFSQVADVVRAPGVPAMQPQYFDLPLIQPISQGAPVAPLRASMGPVPPVPATQPQYFDIPLTEPINQGASAAHFLPQQPMEGPLVPEQWMFPGAALSQSVRPGVAQSQYFDLPLTQPINHGAPAAHFLHQPPMEGPWVPEQWMFQGAPPSQGTDVVQHQLDALGYTLHGLNHPGVPVSPAVNQYHLSQAAFGLPIDEDESGEGSDTSEPCEALDLSIHGRPCPQAPEWPVQEEGGQDATEVLDLSIHGRPRPRTPEWPVQGEGGQNVTGPETRRVVVSAVVHMCQDDEFPDLQDPPDEA	binds	
EBNA-5 (endogenous in lymphoblastoid cells) (protein, UniProt Q8AZK7 1-506) MGDRSEGPGPTRPGPPGIGPEGPLGQLLRRHRSPSPTRGGQEPRRVRRRVLVQQEEEVVSGSPSGPRGDRSEGPGPTRPGPPGIGPEGPLGQLLRRHRSPSPTRGGQEPRRVRRRVLVQQEEEVVSGSPSGPRGDRSEGPGPTRPGPPGIGPEGPLGQLLRRHRSPSPTRGGQEPRRVRRRVLVQQEEEVVSGSPSGPRGDRSEGPGPTRPGPPGIGPEGPLGQLLRRHRSPSPTRGGQEPRRVRRRVLVQQEEEVVSGSPSGPRGDRSEGPGPTRPGPPGIGPEGPLGQLLRRHRSPSPTRGGQEPRRVRRRVLVQQEEEVVSGSPSGPRGDRSEGPGPTRPGPPGIGPEGPLGQLLRRHRSPSPTRGGQEPRRVRRRVLVQQEEEVVSGSPSGPRGDRSEGPGPTRPGPPGIGPEGPLGQLLRRHRSPSPTRGGQEPRRVRRRVLVQQEEEVVSGSPSGPLRPRPRPPARSLREWLLRIRDHFEPPTVTTQRQSVYIEEEEDED	no binding	no binding
